Measurements taken from PubChem BioAssay AID624417 (National Center for Advancing Translational Sciences (NCATS), 2012).
The campaign covered roughly 410,000 compounds. About 6,400 (1.6%) were called active. The shares of active, inactive and inconclusive entries below differ from those in the screen. The call rests on the fitted dose curve; in most records, active means well fitted inhibition curve with a large enough effect; inconclusive means small, poorly fitted or top-dose-only effect; inactive means no such curve, though single readings can be large or run the other way. Potencies of inconclusive entries are doubtful fits and often do not repeat.

These compounds were tested against Glucagon-like peptide 1 receptor (Homo sapiens) (UniProt P43220) (assay: qHTS of GLP-1 Receptor Inverse Agonists (Inhibition Mode)). Conditions: HEK293 GLP-1R CRE-luciferase, luminescence, 24 h, GLP-1R form is constitutively active; series mostly up to 38.3 µM.
Procedure, shortened: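 Assay principle: reduced luminescence from a cAMP-responsive reporter in HEK293 cells co-expressing a constitutively active GLP-1R. Conditions: 24 hr compound incubation, 37 deg C, 5% CO2.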
Further: nearly all actives have a fitted effect of over 55% in size.
Potency means the concentration at half of the fitted maximal effect; tags describe the fitted curve by direction and shape.

Chain of UniProt P43220 (P43220 whole entry, looked up): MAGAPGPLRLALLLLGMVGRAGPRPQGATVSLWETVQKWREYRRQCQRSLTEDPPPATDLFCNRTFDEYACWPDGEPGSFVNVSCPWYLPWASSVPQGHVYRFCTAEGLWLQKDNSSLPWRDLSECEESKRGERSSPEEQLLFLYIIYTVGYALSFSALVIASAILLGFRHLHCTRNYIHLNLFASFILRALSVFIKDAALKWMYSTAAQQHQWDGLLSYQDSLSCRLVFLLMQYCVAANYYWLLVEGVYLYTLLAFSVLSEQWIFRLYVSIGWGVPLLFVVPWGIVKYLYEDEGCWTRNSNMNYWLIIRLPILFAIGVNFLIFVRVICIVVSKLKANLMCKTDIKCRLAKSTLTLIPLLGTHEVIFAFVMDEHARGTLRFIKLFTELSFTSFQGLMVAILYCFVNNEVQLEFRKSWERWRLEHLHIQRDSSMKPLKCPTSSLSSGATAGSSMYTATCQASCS

Potency, active:
O=C(CSCC(=O)N1CCCCC1)Nc1nc(-c2ccccc2)c(-c2ccccc2)s1 5.62 µM, O=S(=O)(c1cccc(Cl)c1Cl)N1CCN(C(=S)NCCCN2CCOCC2)CC1 7.08 µM

Potency, inactive:
COCCNC(=O)c1ccc(-n2c(-c3ccccc3)cc3c2CCCCC3)cc1, COc1cccc(N2C(=O)CSC23C(=O)N(Cc2ccccc2)c2ccccc23)c1 (stereo unspecified), CCCn1nnc(NC(=O)c2ccc(-c3cc(Cl)ccc3Cl)o2)n1, CN(CCOC(=O)c1ccc2c(c1)OCCO2)C(C)(C)C, N#C/C(=C/c1ccc(F)cc1)S(=O)(=O)c1ccccc1, CN(C)CCN1CCN(C2CN(Cc3cn(Cc4ccccc4)nn3)S(=O)(=O)C2)CC1 (stereo unspecified), Cc1cc(C)c(NC(=O)CSc2nc(COc3ccccc3)nc3ccccc23)c(C)c1

Potency, inconclusive:
Cc1c(Cl)cccc1NC(=S)N1CCCN(Cc2ccccc2F)C1 10 µM [inhibitor, partial curve, poor fit], O=C(CSc1ncccc1-c1nc2ccccc2[nH]1)N1CCc2ccccc21 1.41 µM [inhibitor, full curve], COc1cc(/C=C2\CCC/C(=C\c3ccc(O)c(OC)c3)C2=O)ccc1O 28.2 µM [inhibitor, single point], Cc1cc(Cl)ccc1OCC(=O)Nc1nc(-c2cccs2)cs1 28.2 µM [inhibitor, single point], N#CC(C#N)=C(Nc1ccc(F)cc1)SCc1cccc(F)c1 4.47 µM [inhibitor, partial curve, poor fit], O=C(CCl)N1CCCC1c1ccc2c(c1)OCCO2 (stereo unspecified) 28.2 µM [inhibitor, single point], ONC(=Nc1ccccc1)c1ccc(Cl)cc1 20 µM [inhibitor, single point], CCCCOc1ccc(C(=O)N/C(=C/C=C/c2ccccc2)C(=O)NCCCO)cc1 28.2 µM [inhibitor, single point], Cc1ccc(N(Cc2cc3ccccc3[nH]c2=O)C(=O)c2ccco2)c(C)c1 2.82 µM [inhibitor, full curve], Cc1ccc(/C=N/NC(=O)c2nnn(-c3nonc3N)c2CSc2ccccc2)o1 22.4 µM [inhibitor, single point], COc1ccccc1NC(=O)CN1CCN(c2ccccc2)CC1 10 µM [inhibitor, partial curve, poor fit], CN1C(=O)c2ccccc2Sc2ccc(NC(=O)COc3ccccc3)cc21 8.91 µM [inhibitor, partial curve, poor fit], CCOc1ccc(-c2nc(N)ncc2Oc2ccccc2Br)c(O)c1 28.2 µM [inhibitor, single point], CCN(c1ccccc1)S(=O)(=O)c1cccc(C(=O)NCC(c2ccco2)N2CCCC2)c1 (stereo unspecified) 11.2 µM [inhibitor, partial curve, poor fit], COc1cc(C2CC(=O)Oc3ccc(C(C)(C)C)cc32)cc(OC)c1OC (stereo unspecified) 28.2 µM [inhibitor, single point], c1ccc(-c2csc(N3CCCCCC3)n2)cc1 28.2 µM [inhibitor, single point], CC(C)OC(=O)C(=O)NNc1ccccc1 0.501 µM [inhibitor, full curve, poor fit], CSc1ccccc1OCc1cc(C(=O)N2CCN(c3ccccc3)CC2C)no1 (stereo unspecified) 10 µM [inhibitor, partial curve, poor fit], O=C(NC(c1ccc(Cl)cc1)c1ccsc1)C1CCN(CCOc2ccc(Cl)cc2)CC1 (stereo unspecified) 11.2 µM [inhibitor, single point], O=C(NCc1ccccc1)C1=C[C@H](c2ccc(C(F)(F)F)cc2)C[C@H](OCc2ccc(CO)cc2)O1 12.6 µM [inhibitor, single point], COc1ccc(C2=NN(C(=O)c3cccs3)C(c3ccccc3O)C2)cc1 (stereo unspecified) 28.2 µM [inhibitor, single point], Cc1ccc(S(=O)(=O)c2nc(-c3ccccc3Cl)oc2N2CCCCCC2)cc1 28.2 µM [inhibitor, single point], C=CCOc1ccc2ccccc2c1CNCCCN1CCOCC1 11.2 µM [inhibitor, partial curve, poor fit], O=c1[nH][nH]c2c1C(c1ccc(F)cc1)OC(CCc1ccccc1)C2 (stereo unspecified) 12.6 µM [inhibitor, single point], CC(C(=O)NCC1CCCCC1)N1CCc2ccccc2C1 (stereo unspecified) 28.2 µM [inhibitor, single point], O=C(Nc1ccc(Cl)cc1)N[C@H]1CC[C@H](CCn2cc(-c3ccccc3F)nn2)O[C@@H]1CO 12.6 µM [inhibitor, partial curve, poor fit], N#Cc1ccc(N=c2ssnc2Cl)cc1 22.4 µM [inhibitor, partial curve, poor fit], COc1ccc2[nH]c3c(c2c1)CC(C)NC3=O (stereo unspecified) 3.98 µM [inhibitor, full curve], COc1ccccc1CNC(=O)c1ccc(S(=O)(=O)N(C)c2ccccc2)cc1 17.8 µM [inhibitor, partial curve, poor fit], COc1ccc(C2=NN(C(=O)c3cccs3)C(O)(C(F)(F)F)C2)cc1 (stereo unspecified) 7.08 µM [inhibitor, partial curve, poor fit], O=c1[nH]c(CN2CCN(S(=O)(=O)c3ccccc3C(F)(F)F)CC2)nc2sc3c(c12)CCCC3 5.62 µM [inhibitor, full curve], CCCCCCSc1nc(O)c(C2OC(=O)c3c2ccc(OC)c3OC)c(=O)n1-c1ccccc1 (stereo unspecified) 8.91 µM [inhibitor, partial curve, poor fit]
